In the RNAGym collection of RNA variant scans (doi:10.1073/pnas.2313332121):
This sample is rich in variants without activity.

B1: TPR 5TU (parent)
chain: GGAUCUUCUCGAUCUAACAAAAAAGACAAAUCUGCCACAAAGCUUGAGAGCAUCUUCGGAUGCAGAGGCGGCAGCCUUCGGUGGCGCGAUAGCGCCAACGUUCUCAACUAUGACACGCAAAACGCGUGCUCCGUUGAAUGGAGUUUAUCAUG

Variants of: B1
Experiment: polymerase ribozyme fitness, log enrichment relative to wild type (log ratio); higher = more active; in vitro selection for triplet polymerase activity
Outline: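 Only genotypes with ≥10 input reads and ≥1 read per output were kept after Illumina sequencing of input and output libraries. These libraries were PCR-built, transcribed mutants of each subunit of a heterodimeric triplet polymerase ribozyme, each put through one triplicate in vitro selection round with frozen incubation at −7 °C, gel excision of extended constructs, streptavidin-bead capture and RT-PCR. Fitness is a logarithmic ratio of genotype enrichment to wild-type enrichment, from inverse-variance-weighted replicate averages, with the logarithm in base 2.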

Polymerase ribozyme fitness (log ratio), -3.34:
A37C C76A

Polymerase ribozyme fitness (log ratio), -3.83:
A37C U127G

Polymerase ribozyme fitness (log ratio), -4.05:
A37G C38G G83U C118A C123U

Polymerase ribozyme fitness (log ratio), -1.88:
A37G A60G C87U

Polymerase ribozyme fitness (log ratio), -0.806:
A37C U56A

Polymerase ribozyme fitness (log ratio), -2.53:
A37G A47G U101C

Polymerase ribozyme fitness (log ratio), -0.276:
A37C G92U

Polymerase ribozyme fitness (log ratio), -0.102:
A37C G83A

Polymerase ribozyme fitness (log ratio), -4.19:
A37G A60U G81A A97C A137G

Polymerase ribozyme fitness (log ratio), -0.249:
A37C C54U C96U

Polymerase ribozyme fitness (log ratio), -1.09:
A37C C96U

Polymerase ribozyme fitness (log ratio), -3.42:
A37C C57G C76G A98G A138C G140U

Polymerase ribozyme fitness (log ratio), -3.9:
A37C G86U A120U U146G

Polymerase ribozyme fitness (log ratio), ≤ -4.2:
A37C A91G A115C
A37C C38U G71A U109G C123G
A37C C43A A107U
A37C C43A C69A G92A C105A C116A G141C G143A
A37C C54A A64G A66C C93A
A37C C54G C93A A97U C99U A107G U109A
A37C C54G G92U A97U A119U
A37C C54U C76U C93G U102C U139G
A37C C57A A97C C108A
A37C C57A C87G A115G C116A
A37C C75G C116G U134A
A37C C76G
A37C C76U G88C C103A U104G
A37C C87G A97U U102G C108U C118U U144C
A37C C87G G88C A89U C125G U144C U151G
A37C C93A C99A A110G
A37C C108G
A37C C123A G126C A147C
A37C C149G
A37C G42A G58A A60G G84A A89C A98U A107C
A37C G42U G84U G94C A97U C114U G140C
A37C G48A A49C U78G G86A C87G C99U A142C U146G
A37C G48A U55A C85U C93G C108A
A37C G48A U56A C76A A91G C96U C103U U127G G133C U151G
A37C G48C G65C G80A A137C
A37C G48U A106C G124C U144G
A37C G50C A73U
A37C G58C C93U A119G A137C U145A
A37C G59U C79G C95U
A37C G62C G126U A138G A142C
A37C G62U C95A C129A G140C
A37C G65C C93A C125A G126U G133U U135A G141A A142G
A37C G65C G86C G117A
A37C G67U G83A A106U A119C G143C G152A
A37C G68A
A37C G68A A91G C105G U130G A150G
A37C G68C G84C C85U A97U G126U G143C
A37C G68C U135G
A37C G74A C93A C103G U130A
A37C G83C C103A C131G
A37C U44A G80U G81A C85U G100A G128C
A37C U44G G58C G59C G84A C103U U146A U151G
A37C U53A U78A C85A G117U
A37C U55A C72U G88C A98G C103G U127C U134A
A37C U55G A66U C72U A91G C96U C116A C118G A142U U144A
A37C U56A C57U G94A A113U G143C
A37C U56A C85A C99G A107G G124A
A37C U56C G68C C85U C99A A150U
A37C U56G G68U U90A C95U C105A G117U
A37C U61A C85G A97U A113U
A37C U61A G81U G86A C93A U134C G143A U145C
A37C U82G U148A
A37C U90A C93A
A37G A40G A52C
A37G A40U A115G A142U
A37G A41U A49G A137G U148G
A37G A49C A73U G81A G86A G140A
A37G A49G A60C G62C G94U U102A
A37G A49U C79A C99U G124A A142U
A37G A49U G59A A60C C95A
A37G A52C A91U A97G U102C U135C
A37G A52G C95G U127C
A37G A52G G84A C93U U127G U146C
A37G A60C C72A C95U A120G G126C
A37G A60G C76A C93U A119C G136C
A37G A138U
A37G C51G A52G U53A A89C G136C A138U

Polymerase ribozyme fitness (log ratio), -4.11:
A37G A52G C69A U144G

Polymerase ribozyme fitness (log ratio), -3.09:
A37C G86C

Polymerase ribozyme fitness (log ratio), -3.66:
A37C C51U G58C C95G C118A

Polymerase ribozyme fitness (log ratio), -3.56:
A37C C69G G70A C116A
